# Assay results: PubChem BioAssay AID485294 (National Center for Advancing Translational Sciences (NCATS), 2010)
# About 150 (0.041%) of roughly 370,000 compounds were called active. The shares of active, inactive and inconclusive entries below differ from those in the screen. The call rests on the fitted dose curve; in most records, active means well fitted inhibition curve with a large enough effect; inconclusive means small, poorly fitted or top-dose-only effect; inactive means flat fitted curve, though single readings scatter. No potency is given beside an inconclusive call; the fits are too rough.
# Target: Beta-lactamase (Escherichia coli (strain K12)) (UniProt P00811)
# Assay: qHTS Inhibitors of AmpC Beta-Lactamase (assay with detergent); further: nearly all actives have a fitted effect of over 25% in size;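 on activity change, negative = inhibition: 0% = no-compound wells and -100% = no-enzyme wells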
# Conditions: AmpC hydrolysis of nitrocefin, absorbance 480 nm, 0.01% Triton; activity change, negative = inhibition: at 114 µM (top of the series)
# In short: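 20 mM phosphate pH 7.0 + 0.01% (detergent screen) or 0.0001% Triton X-100; 5.3 nM AmpC reagent; cpd preinc 15 min RT; nitrocefin (800 uM stock) to start; A480 q20 s × 4 min; Activity was normalised to no-enzyme and no-compound control wells.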
# Potency means the concentration at half of the fitted maximal effect; tags describe the fitted curve by direction and shape.
# Chain of UniProt P00811 (P00811 whole entry, looked up): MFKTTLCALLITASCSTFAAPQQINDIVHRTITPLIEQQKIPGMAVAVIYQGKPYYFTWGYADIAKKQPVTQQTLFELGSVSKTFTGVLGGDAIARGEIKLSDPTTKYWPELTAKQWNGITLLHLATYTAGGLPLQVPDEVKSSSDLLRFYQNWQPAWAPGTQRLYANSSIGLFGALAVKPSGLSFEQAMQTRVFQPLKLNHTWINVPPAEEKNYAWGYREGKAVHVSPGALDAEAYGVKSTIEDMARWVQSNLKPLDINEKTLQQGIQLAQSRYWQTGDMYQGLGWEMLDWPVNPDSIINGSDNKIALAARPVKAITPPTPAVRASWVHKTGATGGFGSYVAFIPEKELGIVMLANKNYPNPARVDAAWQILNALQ
Compound,Potency,"activity change, negative = inhibition"
COc1ccccc1OCCNC(=O)CN1C(=O)NC2(CCCC2)C1=O,"inconclusive [inhibitor, full curve, poor fit]",–
Cc1c(Cl)cccc1NC(=O)Nc1nnc(N(C)C2CCCCC2)s1,inactive,–
COc1ccc(-c2cn3c(n2)sc2cc(C(=O)NCC(C)c4ccccc4)ccc23)cc1 (stereo not drawn),inactive,–
Cc1cc(C)c(NC(=O)CSc2nc(=O)n(CCN3CCOCC3)c3c2CCC3)c(C)c1,"inconclusive [inhibitor, full curve]",–
CCN(CC)c1ccc(/C=N/NC(=S)NC)c(O)c1,"inconclusive [inhibitor, full curve, poor fit]",–
CCCCCCCCC(=O)N1CCN(c2cc3c(cc2F)c(=O)c(C(=O)O)cn3CC)CC1,inactive,–
C/C(=C/Cc1c(O)cc2oc(C)cc(=O)c2c1O)COC1OC(CO)C(O)C(O)C1O (stereo not drawn),"inconclusive [inhibitor, partial curve, poor fit]",–
COc1ccccc1CNC(=O)[C@@H](NC(=O)C1CCN(C(=O)[C@@H]2CCCN2)CC1)C(C)C,"inconclusive [inhibitor, single point]",–
CCOc1ccc(OCC)c(S(=O)(=O)N2CCCCC2)c1,"inconclusive [inhibitor, full curve, poor fit]",–
O=C1COc2ccccc2CN1,"inconclusive [inhibitor, partial curve]",–
Cc1ccc(C(=O)NC(C)C2CC3CCC2C3)c(C)c1 (stereo not drawn),"inconclusive [inhibitor, full curve, poor fit]",–
COc1ccccc1NC(=O)N(Cc1ccccc1)c1ccccn1,inactive,–
Cc1c2cnn(CC(=O)N3CCC4(CC3)OCCO4)c(=O)c2c(C)n1Cc1ccccc1Cl,inactive,–
COc1cc(/C=N/Nc2ccc(Cl)c(C(=O)O)c2)ccc1OC(=O)c1ccco1,"inconclusive [inhibitor, single point]",–
COc1ccc(Cl)cc1C(=O)Nc1ccc2c(c1)OCCO2,inactive,–
COC(=O)c1ccccc1NC(=O)CN1C(=O)CSC1=O,"inconclusive [inhibitor, full curve, poor fit]",–
CCOc1ccc(CNC(=O)CCC(=O)N2Cc3ccccc3Oc3ncccc32)cc1,inactive,–
Cc1ccc(CN2CCN(/N=C/c3ccc(Cl)c([N+](=O)[O-])c3)CC2)cc1,"inconclusive [inhibitor, single point]",–
CNc1cc(N2CCCCCC2)ccc1[N+](=O)[O-],"inconclusive [inhibitor, partial curve, poor fit]",–
COc1ccc(C(C)=O)cc1COC(=O)CCC(=O)N(CC(C)C)c1c(N)n(CC(C)C)c(=O)[nH]c1=O,"inconclusive [inhibitor, partial curve, poor fit]",–
CCCCNC(=O)N1CCOCCOCCN(C(=O)NCCCC)CCOCC1,"inconclusive [inhibitor, full curve]",–
CCN(CC)CCCN1C(=O)C(=O)/C(=C(/O)c2ccc3c(c2)OCCO3)C1c1ccc(C)o1 (stereo not drawn),"inconclusive [inhibitor, full curve, poor fit]",–

Compound,Potency,"activity change, negative = inhibition"
CC(C)NC(=O)/C(C#N)=C/c1ccc2c(c1)OCCO2,inactive,–
CC(C)[C@H](NC(=O)c1ccco1)C(=O)OCC(=O)Nc1cccc(F)c1,"inconclusive [inhibitor, full curve, poor fit]",–
COc1ccc(/C=N/NC(=O)c2[nH]c3ccc(Cl)cc3c2-c2ccccc2)c(C(=O)O)c1OC,"inconclusive [inhibitor, full curve, poor fit]",–
O=C(Nc1ccccn1)Nc1cccs1,inactive,–
Cc1cc(C)cc(N2C(=O)N(c3ccccc3C)C3CS(=O)(=O)CC32)c1 (stereo not drawn),"inconclusive [inhibitor, full curve, poor fit]",–
c1ccc(-c2nnsc2-c2nc3ccccc3[nH]2)cc1,inactive,–
Cc1ccn2c(Nc3ccccc3C)c(-c3ccncc3)nc2c1,"inconclusive [inhibitor, full curve, poor fit]",–
CCN(CCN(C)C)C(=O)Cn1ncc2c([nH]c3ccc(C)cc32)c1=O,inactive,–
COC(=O)c1sccc1NC(=O)Cn1nnc(-c2ccc(C)cc2)n1,–,inconclusive: -15.5% [inhibitor]
O=C1CCN(C(=O)c2cccs2)c2ccccc21,"inconclusive [inhibitor, partial curve, poor fit]",–
O=C(Cc1ccc(Cl)cc1)NCCS(=O)(=O)N1CCN(c2ccccc2F)CC1,"inconclusive [inhibitor, full curve, poor fit]",–
O=C(CN1CCCCCC1)N/N=C/c1cccc(Cl)c1Cl,inactive,–
CCOC(=O)c1c(NC(=O)c2ccc(S(=O)(=O)N3CCOCC3)cc2)sc2c1CCN(C)C2,inactive,–
O=C(CNc1cccc2ccccc12)N/N=C/C(Br)=C/c1ccccc1,"inconclusive [inhibitor, full curve, poor fit]",–
CCCC(=O)Nc1nnc(SCc2cc(=O)n3ccccc3n2)s1,inactive,–
COc1ccc(CNC(=O)CCS(=O)(=O)c2ccc3c(c2)NC(=O)CS3)cc1,inactive,–
CC1CC1C(=O)Nc1ccc(S(=O)(=O)N2CCCCC2)cc1 (stereo not drawn),inactive,–
O=C(CSc1ccc2nnc(-c3cccc(F)c3)n2n1)N1CCCc2ccccc21,"inconclusive [inhibitor, partial curve, poor fit]",–
CC1CC(=O)Nc2ccccc2N1S(=O)(=O)c1cccc(Cl)c1 (stereo not drawn),"inconclusive [inhibitor, full curve, poor fit]",–
COc1ccc(NS(=O)(=O)c2ccc(C)c(C(=O)NNC(=O)c3csc(N4CCOCC4)n3)c2)cc1,"inconclusive [inhibitor, full curve, poor fit]",–
COc1ccc(N2CCN(C(CNC(=O)C(=O)NCC3CCCO3)c3ccco3)CC2)cc1 (stereo not drawn),"inconclusive [inhibitor, partial curve, poor fit]",–
